From ChEMBL document CHEMBL4888484, “Replenishing the malaria drug discovery pipeline: Screening and hit evaluation of the MMV Hit Generation Library 1 (HGL1) against asexual blood stage Plasmodium falciparum ,using a nano luciferase reporter read-out” (2022)
In all, about 150,000 compounds went through this assay and about 540 (0.36%) showed an effect of 50% or more. Some of the results follow.

The compounds below were run on Plasmodium falciparum (assay: Primary screen in NF54 nanoGlo assay, in single point, at 2uM, 72h; a lower Z score goes with more inhibition). Conditions: timepoint 72 hour.
Assay type: functional, Erythrocyte

Row | SMILES | % Inhibition | Z score
1 | CCN(CCS(=O)(=O)c1ccc(C)cc1)Cc1cccc(C(=O)O)c1 | -11% | 1.58
2 | CN(C)CCOc1cc2c3c(c1)CCCN3CCC2 | -34% | 4.03
3 | O=C(c1nn(-c2ccccc2)cc1O)N1CCN(c2cccc(Cl)c2)CC1 | -7% | 1.47
4 | CCc1cc([C@@H]2CCCN2S(=O)(=O)c2ccccc2C)on1 | -5% | 0.74
5 | COc1cc(N(Cc2ccsc2)C(=O)CC#N)ccc1Cl | -14% | 1.44
6 | O=C(Cn1c(=O)n(Cc2ccc(C(=O)NCCc3ccc(Cl)cc3)cc2)c(=O)c2ccccc21)NC1CCCC1 | -3% | 0.4
7 | Cc1ccc([C@@H](C)C(=O)N2CC(c3nc(-c4ccccc4)no3)C2)o1 | 4% | -0.55
8 | Cc1ccc2c(c1)Oc1cc(Oc3ccccc3C)c(S(=O)(=O)N3CCCCC3)cc1C(=O)N2 | -11% | 1.52
9 | O=C(c1cc2ccccc2[nH]1)N1CC(N2CCCC2)C1 | -10% | 1.9
10 | CC(C)CNC(=O)CN(C)C(=O)c1cc2n(n1)CCCN(Cc1ccc(F)cc1)C2=O | -5% | 1.04
11 | CN(C)c1cccc(CNCc2cnc(N3CCOCC3)nc2)c1 | -2% | 0.27
12 | O=C1N(CC2CCC2)CCC[C@@]12CCN(c1nc3ccccc3s1)C2 | -4% | 0.63
13 | CC[C@@](C)(CC(=O)OC)NC(=O)Nc1ccccc1OC | 0% | 0.05
14 | CC(C)(C)C(=O)NCc1nccnc1-c1ccco1 | 13% | -1.73
15 | COCc1ncc(C)n1[C@H]1CCN(C(=O)CCCc2c[nH]c3ccccc23)C1 | -6% | 0.74
16 | NC(=O)N1CCC[C@H](C(=O)N(CC#Cc2ccccc2)C2CCCC2)C1 | -25% | 5.37
17 | COc1ccc(N2C3=[N+](CCCCC3)C[C@]2(O)c2ccc(OC)cc2)cc1 | 0% | -0.08
18 | Cc1noc(NC(=O)c2cccc(S(C)(=O)=O)c2)c1-c1ccccc1 | 10% | -0.96
19 | Cn1cc(C(C)(C)C(=O)N2CC(C)(CO)C2)cn1 | -7% | 0.93
20 | CCn1ncnc1CNC1CC(C)(c2ccccc2)C1 (stereo unspecified) | -11% | 1.42
21 | CC(=O)c1ccc(S(=O)(=O)N2CCN(c3cnsn3)CC2)cc1 | -13% | 1.66

Row | SMILES | % Inhibition | Z score
22 | O=C1CCC(Nc2ccc(Br)cn2)C(C2CC2)N1 (stereo unspecified) | 36% | -1.37
23 | Cc1ccc(NC(=O)[C@H]2C[C@H](C(=O)O)CN(C3Cc4ccccc4C3)C2)cn1 | -7% | 1.45
24 | COc1cc([C@@H](CC(=O)NCc2ccccc2)c2c[nH]c3cccc(OC)c23)cc2c1OCCO2 | 22% | -3.66
25 | Cc1n[nH]c([C@@H]2CCN(C(=O)c3cn[nH]c3)CCN2Cc2ccccc2)n1 | -17% | 2.5
26 | O=C(Nc1cccn2cnnc12)c1ccsc1 | -6% | 0.85
27 | Cn1nccc1S(=O)(=O)N1CCNC(=O)C[C@H]1C(F)(F)F | 7% | -1.05
28 | Cc1ccnc(N2CCN([C@@H](C)c3ccc(S(=O)(=O)N(C)C)cc3)CC2)c1 | -5% | 0.85
29 | CCN[C@@H](C(N)=O)c1ccc(F)c(F)c1 | -2% | 0.28
30 | Cn1ccc2c(-c3ccc(C(=O)N4CCOCC4)o3)ccnc21 | -9% | 1.01
31 | O=C(c1ccc(-c2cnn(-c3nnn[nH]3)c2)cc1)N1CCCCCCC1 | -13% | 1.84
32 | COc1cc2c(cc1NC(=O)N1CCC[C@H](C(=O)N3CCCC3)C1)OCO2 | -11% | 1.15
33 | CCc1nccn1CCCNc1nc2cc(C)ccc2o1 | -9% | 1.81
34 | CN(Cc1ccc(Br)o1)C(=O)c1ncccc1O | -12% | 1.53
35 | CCCC(=O)N1c2ccccc2C(=C2SC(C(=O)OCC)=C(C(=O)OCC)S2)C(=S)C1(C)C | -6% | 0.75
36 | Cc1ncc(-c2nc(-c3cccc(F)c3)nn2C(C)(C)C)c(=O)[nH]1 | -19% | 2.08
37 | Clc1ccc(CN2CCCN(c3nccn4cnnc34)CC2)cc1 | -13% | 1.72
38 | O=C(Nc1ccc2c(c1)OCO2)c1oc2ccccc2c1NC(=O)c1c(F)cccc1F | -8% | 1.59
39 | CN(C(=O)NCc1ccc(N2CCc3ccccc3C2)nc1)C1CC1 | -8% | 0.89
40 | O=C(NCc1cc[nH]n1)NCc1nccn1CCCc1ccccc1 | -7% | 1.1
41 | CCS(=O)(=O)C[C@H](C)N(C)c1cc(C)nc(C)n1 | -1% | 0.18
42 | CCc1cc(N2CC[C@H](N3CCCCC3)C2)ncn1 | 5% | -0.74

Row | SMILES | % Inhibition | Z score
43 | CCn1cnnc1CNC1CCN([C@@H](C)Cc2ccccc2)CC1 | -11% | 1.57
44 | O=C(Nc1nc2c(s1)CN(S(=O)(=O)c1c(F)cccc1F)CC2)c1ccoc1 | 0% | -0.01
45 | CCN1CCN(S(=O)(=O)CC2CCCC2)CC1=O | -19% | 1.88
46 | CCC(C)N(CC(=O)N1CCc2sccc2C1COc1ccc(C(C)C)cc1)C(=O)c1ccc(C)cc1 (stereo unspecified) | 1% | -0.18
47 | Cc1cccc(OC/C=C/Cn2ccnc2)c1C | -7% | 0.72
48 | Cc1ncsc1C(=O)NCc1ccccc1CN1CCOCC1 | -4% | 0.48
49 | Nc1nc(N2CCCCCC2)ncc1C(=O)NCc1ccccc1F | 5% | -0.59
50 | NC(=O)Nc1ccc(Cl)c(OC(F)F)c1 | -6% | 0.69
51 | O=C(Nc1nsc(Cc2ccc(F)cc2)n1)[C@@H]1CCCO1 | -13% | 2.47
52 | Cc1cc(=O)c(C(=O)N(C)CC2(CO)CCC2)c(C)[nH]1 | -7% | 1.34
53 | CCCc1cc(C(=O)NCc2nnc(CC)s2)no1 | -10% | 1.61
54 | CCN(C(=O)c1cc(C)nc2onc(C)c12)c1cccc(Br)c1 | -6% | 0.65
55 | O=C(COc1ccccc1)Nc1ccc2c(c1)C(O)=Nc1cccnc1O2 | 46% | -10.48
56 | CC1OCCC1S(=O)(=O)NCC1(C2CCC2)CCC1 (stereo unspecified) | 9% | -1.2
57 | CCN(CC)S(=O)(=O)c1cc(C)c(C)c(NC(=O)c2ccc(F)c(S(=O)(=O)N3CCC3)c2)c1 | 0% | -0.05
58 | Cc1ccc(OCCCO[C@H]2CCCc3c[nH]nc32)cc1C | -6% | 0.54
59 | O=C(c1cn(-c2cc(N3CCOCC3)ncn2)cn1)N1CCOCC1 | -11% | 1.19
60 | CCc1nnc2cc(N3CCN(C(=O)Nc4cccc(F)c4)CC3)cnn12 | 0% | 0.02
61 | COc1ccc([C@H]2CC(=O)Nc3onc(C)c32)cc1Cn1cccn1 | -12% | 2.03
62 | COCCCN1C(=O)CC[C@@H]2CN(C(=O)Cc3ccc(F)cc3C)CC[C@@H]21 | -13% | 2.52
63 | CCCn1ccnc1CCCN(C)S(=O)(=O)N1CCOC(C)(C)C1 | -9% | 1.21

Row | SMILES | % Inhibition | Z score
64 | CC(C)n1ccc(C(=O)N[C@@H](C)c2ncnn2C)n1 | -9% | 1.29
65 | Cc1cc(CNC2C[C@H]3CN(Cc4ccccc4)CCN3C2)ccn1 (stereo partly specified) | -9% | 1.86
66 | CC12CC(c3ccccc3O1)N(C(=O)c1cccc(F)c1)C(=O)N2c1ccccc1 (stereo unspecified) | 1% | -0.21
67 | Cc1ccc(CN2C(=O)C3(CCOCC3)C[C@H]2c2nnnn2C(C)(C)C)cc1C | -10% | 1.62
68 | COc1cccc(CNC(=O)CCc2conc2-c2ccc(C)cc2)c1 | -4% | 0.55
69 | Cc1c(C)c(C(=O)Nc2cccc(F)c2)n(Cc2ccccc2F)c1C | 0% | 0.04
70 | O=C(NCC1CCCO1)NC1CC1c1ccccc1F (stereo unspecified) | -12% | 1.38
71 | CN(C(=O)Nc1ccn(-c2ccc(Cl)cc2C#N)n1)[C@H]1C[C@@H](C(N)=O)C1 | -14% | 1.49
72 | CC(=O)N[C@@H]1C[C@H](CCc2ccccc2)O[C@H](c2cnn(C)c2C)C1 | -1% | 0.11
73 | COc1ccc(CCc2nc(NC(=O)[C@H](C)N3Cc4ccccc4C3=O)n[nH]2)cc1OC | 4% | -0.48
74 | CCCCn1ccnc1C1CCN(c2ccnc(C)c2)CC1 | 4% | -0.71
75 | c1ccc(OCCCn2ccnc2)c(CN2CCCN3CCC[C@H]3C2)c1 | -10% | 0.95
76 | CN(c1nc2c(s1)C[C@@H](c1ccccc1)CC2)S(=O)(=O)c1cccnc1 | -10% | 1.61
77 | CO[C@H]1CCC12CCN(S(=O)(=O)c1ccc(Cl)c(Cl)c1)CC2 | -12% | 1.52
78 | CCC(C)C(NC(=O)C1CCC(C)CC1)C(=O)NC1CCN(Cc2ccccc2)CC1 (stereo unspecified) | -3% | 0.32
79 | CCN(C(=O)c1ccc(-c2cncc3ccccc23)cc1)[C@@H](C)CCO | -19% | 2.47
80 | CCOC(Cn1cc(C(=O)N[C@@H](C)c2ccc(N3CCOCC3)cc2)nn1)OCC | -10% | 1.6
81 | CN(C)CC1CCN(C(=O)N2CCCCCC2)CC1 | -5% | 0.75
82 | CC(O)CC1COCCN1C(=O)NCCc1ccc(Cl)s1 (stereo unspecified) | -2% | 0.22
83 | CCn1c(CN2CCN(Cc3cc(F)ccc3OC)CC2)nc2cc(S(=O)(=O)N(C)C)ccc21 | -10% | 1.68
